Here are results for 10 molecules from patent publication US20250188179A1 (ADAGENE PTE, published 2025).

Assay [1] has as its target T1, full-length human CD137 with C-terminal 3xMyc tag displayed on yeast cells (human, UniProt Q07011 24-255).
T1 construct: whole, on cells; not used; also called hCD137; not shown: C-terminal 3xMyc tag
As to the kind of experiment: KD divided by KD of parental TY21242; FACS on yeast hCD137; data batch 2.

The target in assay [2] is T1, full-length human CD137 with C-terminal …. Kind of assay: FACS titration on yeast displaying full-length hCD137-3xMyc, no protease; data batch 2.
Assay [3] has the same target. Kind of assay: KD divided by KD of parental TY21242; FACS on yeast hCD137; data batch 1.
For assay [4] the target is unchanged. As to the kind of experiment: FACS titration on yeast displaying full-length hCD137-3xMyc, no protease; data batch 1.

T1 sequence (Q07011 24-255): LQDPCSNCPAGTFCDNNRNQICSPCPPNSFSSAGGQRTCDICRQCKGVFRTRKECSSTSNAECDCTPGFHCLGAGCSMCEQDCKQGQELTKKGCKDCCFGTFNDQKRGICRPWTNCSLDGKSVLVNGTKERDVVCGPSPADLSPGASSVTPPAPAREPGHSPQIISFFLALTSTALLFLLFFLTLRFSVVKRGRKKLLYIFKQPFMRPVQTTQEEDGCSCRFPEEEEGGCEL

B1: TY23572 (antibody, human IgG1, kappa)
heavy: EVQLVESGGGLVQPGGSLRLSCAASGFSLSTGGVGVGWIRQAPGKGLEWLALIDWADDKYYSPSLKSRLTISRDNSKNTLYLQLNSLRAEDTAVYYCARGGSDTVIGDWFAYWGQGTLVTVSS[in this place human IgG1 constant region]
light: EVGSYNDYNYHCKWRPSRCHNPLGLAGSGGSDIQLTQSPSSLSASVGDRVTITCRASQSIGSYLAWYQQKPGKAPKLLIYDASNLETGVPSRFSGSGSGTDFTLTISSLQPEDFATYYCQQGYYLWTFGQGTKVEIKRTVAAPSVFIFPPSDEQLKSGTASVVCLLNNFYPREAKVQWKVDNALQSGNSQESVTEQDSKDSTYSLSSTLTLSKADYEKHKVYACEVTHQGLSSPVTKSFNRGEC
notes: Masked, uncleaved; hIgG1
For orientation: Kd means a measure of binding affinity in units of concentration. As to B1, in assay [1], the Masking efficiency was 291 fold. In addition, the Kd in assay [2] is 84.9 nM.

B2: TY23569 (antibody, human IgG1, kappa)
heavy: EVQLVESGGGLVQPGGSLRLSCAASGFSLSTGGVGVGWIRQAPGKGLEWLALIDWADDKYYSPSLKSRLTISRDNSKNTLYLQLNSLRAEDTAVYYCARGGSDTVIGDWFAYWGQGTLVTVSS[in this place human IgG1 constant region]
light: EVGSYNDYNYHCKWRPSRCHNSGRSAGGGGTPLGLAGSGGSDIQLTQSPSSLSASVGDRVTITCRASQSIGSYLAWYQQKPGKAPKLLIYDASNLETGVPSRFSGSGSGTDFTLTISSLQPEDFATYYCQQGYYLWTFGQGTKVEIKRTVAAPSVFIFPPSDEQLKSGTASVVCLLNNFYPREAKVQWKVDNALQSGNSQESVTEQDSKDSTYSLSSTLTLSKADYEKHKVYACEVTHQGLSSPVTKSFNRGEC
notes: Masked, uncleaved; hIgG1
Take B2: in assay [1], the Masking efficiency came out at 211 fold. In addition, binding in assay [2] was put at a Kd of 61.6 nM.

B3: TY23571 (antibody, human IgG1, kappa)
heavy: EVQLVESGGGLVQPGGSLRLSCAASGFSLSTGGVGVGWIRQAPGKGLEWLALIDWADDKYYSPSLKSRLTISRDNSKNTLYLQLNSLRAEDTAVYYCARGGSDTVIGDWFAYWGQGTLVTVSS[in this place human IgG1 constant region]
light: EVGSYDTDYDFCPILRHRCDSPLGLAGSGGSDIQLTQSPSSLSASVGDRVTITCRASQSIGSYLAWYQQKPGKAPKLLIYDASNLETGVPSRFSGSGSGTDFTLTISSLQPEDFATYYCQQGYYLWTFGQGTKVEIKRTVAAPSVFIFPPSDEQLKSGTASVVCLLNNFYPREAKVQWKVDNALQSGNSQESVTEQDSKDSTYSLSSTLTLSKADYEKHKVYACEVTHQGLSSPVTKSFNRGEC
notes: Masked, uncleaved; hIgG1
For B3, the Masking efficiency in assay [1] worked out at 81 fold. The same molecule showed a Kd in assay [2] of 23.7 nM.

B4: TY22596 (antibody, human IgG4 S228P, kappa)
heavy: EVQLVESGGGLVQPGGSLRLSCAASGFSLSTGGVGVGWIRQAPGKGLEWLALIDWADDKYYSPSLKSRLTISRDNSKNTLYLQLNSLRAEDTAVYYCARGGSDTVIGDWFAYWGQGTLVTVSSASTKGPSVFPLAPCSRSTSESTAALGCLVKDYFPEPVTVSWNSGALTSGVHTFPAVLQSSGLYSLSSVVTVPSSSLGTKTYTCNVDHKPSNTKVDKRV[in this place human IgG4 Fc with S228P (EU numbers)]
light: EVGSYYHDYDDCRVLPRRCFNSGRSAGGGGTPLGLAGSGGSDIQLTQSPSSLSASVGDRVTITCRASQSIGSYLAWYQQKPGKAPKLLIYDASNLETGVPSRFSGSGSGTDFTLTISSLQPEDFATYYCQQGYYLWTFGQGTKVEIKRTVAAPSVFIFPPSDEQLKSGTASVVCLLNNFYPREAKVQWKVDNALQSGNSQESVTEQDSKDSTYSLSSTLTLSKADYEKHKVYACEVTHQGLSSPVTKSFNRGEC
notes: Masked, uncleaved; hIgG4
In the case of B4, the Masking efficiency in assay [3] turned out to be 21 fold. This molecule also showed a Kd in assay [4] of 5.86 nM.

B5: TY23568 (antibody, human IgG1, kappa)
heavy: EVQLVESGGGLVQPGGSLRLSCAASGFSLSTGGVGVGWIRQAPGKGLEWLALIDWADDKYYSPSLKSRLTISRDNSKNTLYLQLNSLRAEDTAVYYCARGGSDTVIGDWFAYWGQGTLVTVSS[in this place human IgG1 constant region]
light: EVGSYDTDYDFCPILRHRCDSSGRSAGGGGTPLGLAGSGGSDIQLTQSPSSLSASVGDRVTITCRASQSIGSYLAWYQQKPGKAPKLLIYDASNLETGVPSRFSGSGSGTDFTLTISSLQPEDFATYYCQQGYYLWTFGQGTKVEIKRTVAAPSVFIFPPSDEQLKSGTASVVCLLNNFYPREAKVQWKVDNALQSGNSQESVTEQDSKDSTYSLSSTLTLSKADYEKHKVYACEVTHQGLSSPVTKSFNRGEC
notes: Masked, uncleaved; hIgG1
For B5, in assay [1], the Masking efficiency came to 37 fold. This molecule also gave a Kd in assay [2] of 10.7 nM.

B6: TY23566 (antibody, human IgG4 S228P, kappa)
heavy: EVQLVESGGGLVQPGGSLRLSCAASGFSLSTGGVGVGWIRQAPGKGLEWLALIDWADDKYYSPSLKSRLTISRDNSKNTLYLQLNSLRAEDTAVYYCARGGSDTVIGDWFAYWGQGTLVTVSSASTKGPSVFPLAPCSRSTSESTAALGCLVKDYFPEPVTVSWNSGALTSGVHTFPAVLQSSGLYSLSSVVTVPSSSLGTKTYTCNVDHKPSNTKVDKRV[in this place human IgG4 Fc with S228P (EU numbers)]
light: EVGSYNDYNYHCKWRPSRCHNPLGLAGSGGSDIQLTQSPSSLSASVGDRVTITCRASQSIGSYLAWYQQKPGKAPKLLIYDASNLETGVPSRFSGSGSGTDFTLTISSLQPEDFATYYCQQGYYLWTFGQGTKVEIKRTVAAPSVFIFPPSDEQLKSGTASVVCLLNNFYPREAKVQWKVDNALQSGNSQESVTEQDSKDSTYSLSSTLTLSKADYEKHKVYACEVTHQGLSSPVTKSFNRGEC
notes: Masked, uncleaved; hIgG4
Take B6: the Masking efficiency in assay [1] was 220 fold. For the same molecule, the Kd in assay [2] came out at 64.3 nM.

B7: TY23565 (antibody, human IgG4 S228P, kappa)
heavy: EVQLVESGGGLVQPGGSLRLSCAASGFSLSTGGVGVGWIRQAPGKGLEWLALIDWADDKYYSPSLKSRLTISRDNSKNTLYLQLNSLRAEDTAVYYCARGGSDTVIGDWFAYWGQGTLVTVSSASTKGPSVFPLAPCSRSTSESTAALGCLVKDYFPEPVTVSWNSGALTSGVHTFPAVLQSSGLYSLSSVVTVPSSSLGTKTYTCNVDHKPSNTKVDKRV[in this place human IgG4 Fc with S228P (EU numbers)]
light: EVGSYDTDYDFCPILRHRCDSPLGLAGSGGSDIQLTQSPSSLSASVGDRVTITCRASQSIGSYLAWYQQKPGKAPKLLIYDASNLETGVPSRFSGSGSGTDFTLTISSLQPEDFATYYCQQGYYLWTFGQGTKVEIKRTVAAPSVFIFPPSDEQLKSGTASVVCLLNNFYPREAKVQWKVDNALQSGNSQESVTEQDSKDSTYSLSSTLTLSKADYEKHKVYACEVTHQGLSSPVTKSFNRGEC
notes: Masked, uncleaved; hIgG4
For the molecule B7, the Masking efficiency in assay [1] came out at 120 fold. In assay [2], this molecule gave a Kd of 35 nM.

B8: TY23570 (antibody, human IgG1, kappa)
heavy: EVQLVESGGGLVQPGGSLRLSCAASGFSLSTGGVGVGWIRQAPGKGLEWLALIDWADDKYYSPSLKSRLTISRDNSKNTLYLQLNSLRAEDTAVYYCARGGSDTVIGDWFAYWGQGTLVTVSS[in this place human IgG1 constant region]
light: EVGSYTDNYDYCPRLRRKCYHSGRSAGGGGTPLGLAGSGGSDIQLTQSPSSLSASVGDRVTITCRASQSIGSYLAWYQQKPGKAPKLLIYDASNLETGVPSRFSGSGSGTDFTLTISSLQPEDFATYYCQQGYYLWTFGQGTKVEIKRTVAAPSVFIFPPSDEQLKSGTASVVCLLNNFYPREAKVQWKVDNALQSGNSQESVTEQDSKDSTYSLSSTLTLSKADYEKHKVYACEVTHQGLSSPVTKSFNRGEC
notes: Masked, uncleaved; hIgG1
Take B8: the Masking efficiency in assay [1] is 243 fold. For the same molecule, the Kd in assay [2] came out at 70.8 nM.

B9: TY23567 (antibody, human IgG4 S228P, kappa)
heavy: EVQLVESGGGLVQPGGSLRLSCAASGFSLSTGGVGVGWIRQAPGKGLEWLALIDWADDKYYSPSLKSRLTISRDNSKNTLYLQLNSLRAEDTAVYYCARGGSDTVIGDWFAYWGQGTLVTVSSASTKGPSVFPLAPCSRSTSESTAALGCLVKDYFPEPVTVSWNSGALTSGVHTFPAVLQSSGLYSLSSVVTVPSSSLGTKTYTCNVDHKPSNTKVDKRV[in this place human IgG4 Fc with S228P (EU numbers)]
light: EVGSYTDNYDYCPRLRRKCYHPLGLAGSGGSDIQLTQSPSSLSASVGDRVTITCRASQSIGSYLAWYQQKPGKAPKLLIYDASNLETGVPSRFSGSGSGTDFTLTISSLQPEDFATYYCQQGYYLWTFGQGTKVEIKRTVAAPSVFIFPPSDEQLKSGTASVVCLLNNFYPREAKVQWKVDNALQSGNSQESVTEQDSKDSTYSLSSTLTLSKADYEKHKVYACEVTHQGLSSPVTKSFNRGEC
notes: Masked, uncleaved; hIgG4
As for B9, the Masking efficiency in assay [1] turned out to be 898 fold. Moreover, the Kd in assay [2] turned out to be 262 nM.

B10: TY22594 (antibody, human IgG4 S228P, kappa)
heavy: EVQLVESGGGLVQPGGSLRLSCAASGFSLSTGGVGVGWIRQAPGKGLEWLALIDWADDKYYSPSLKSRLTISRDNSKNTLYLQLNSLRAEDTAVYYCARGGSDTVIGDWFAYWGQGTLVTVSSASTKGPSVFPLAPCSRSTSESTAALGCLVKDYFPEPVTVSWNSGALTSGVHTFPAVLQSSGLYSLSSVVTVPSSSLGTKTYTCNVDHKPSNTKVDKRV[in this place human IgG4 Fc with S228P (EU numbers)]
light: EVGSYDTDYDFCPILRHRCDSSGRSAGGGGTPLGLAGSGGSDIQLTQSPSSLSASVGDRVTITCRASQSIGSYLAWYQQKPGKAPKLLIYDASNLETGVPSRFSGSGSGTDFTLTISSLQPEDFATYYCQQGYYLWTFGQGTKVEIKRTVAAPSVFIFPPSDEQLKSGTASVVCLLNNFYPREAKVQWKVDNALQSGNSQESVTEQDSKDSTYSLSSTLTLSKADYEKHKVYACEVTHQGLSSPVTKSFNRGEC
notes: Masked, uncleaved; hIgG4
As for B10, the Masking efficiency in assay [3] came out at 84 fold. Besides, in assay [4], binding was characterised by a dissociation constant (Kd) of 23.6 nM.
